Assay results: patent US6365759B1, “Intermediate compounds for preparing macrocylcic analogs” (Eisai Co., Ltd., priority 1998, dated 2002)
Where two headings read alike, the source gives them in different places.

System: COLO 205 human colon cancer xenografts
Details: sub-cutaneous xenografts in nude mice

| Structure (SMILES) | in vivo anticancer activity (cancer growth inhibition) (0.3 mg/kg) | in vivo anticancer activity (cancer growth inhibition) (1 mg/kg, FIG. 5) |
| --- | --- | --- |
| CC[C@]1(O)C[C@H]2CN(CCc3c([nH]c4ccccc34)[C@@](C(=O)OC)(c3cc4c(cc3OC)N(C=O)[C@H]3[C@@](O)(C(=O)OC)[C@H](OC(C)=O)[C@]5(CC)C=CCN6CC[C@]43[C@@H]65)C2)C1 [Vincristine, reference compound] | moderate growth inhibition | substantial cancer growth inhibitory activity |
| CC[C@]1(O)C[C@@H]2CN(CCc3c([nH]c4ccccc34)[C@@](C(=O)OC)(c3cc4c(cc3OC)N(C)[C@H]3[C@@](O)(C(=O)OC)[C@H](OC(C)=O)[C@]5(CC)C=CCN6CC[C@]43[C@@H]65)C2)C1 [Vinblastine, reference compound] | inactive | inactive |
